According to the supplement of paper PMC4967469:
The IC50 comes from the fitted curve, where viability falls to half of the control; a limit (>, <) means that the fit lies beyond the doses tested. For AUC the same curve is integrated over the 256-fold range of doses and scaled to a fraction; the more sensitive the line, the further below 1. For some assays here: Where the top dose is marked as inferred, it was calculated from the reported fits. For some assays here: An entry number marks a drug with two screens in the source, which often give different values.

Legend:
Assay in all cases: Viability of human cancer cell lines after 72 h of drug (GDSC screen)
YM201636 = compound: Nc1ccc(C(=O)Nc2cccc(-c3nc(N4CCOCC4)c4oc5ncccc5c4n3)c2)cn1 [YM201636]; conditions: top dose 5.12 µM; top dose inferred
Procedure: (§1)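 Human cancer cell lines in 384-well plates, medium with 10% serum, drug for 72 h over a 256-fold dose range (nine 2-fold or five 4-fold steps up to the top dose). Adherent lines were fixed and stained with the nucleic acid dye Syto60, suspension lines read with resazurin; signal relative to control wells, capped at 0 and 100%. One two-parameter sigmoid per drug and line, fitted in a mixed model over all curves with the slope shared within a line.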

EX-527 = compound: NC(=O)C1CCCc2c1[nH]c1ccc(Cl)cc21 [EX-527]; conditions: top dose 20 µM
Procedure: as §1

AS601245 = compound: N#CC(c1ccnc(NCCc2cccnc2)n1)c1nc2ccccc2s1 [AS601245]; conditions: top dose 8 µM; top dose inferred
Procedure: as §1

AZD6244 = compound: Cn1cnc2c(F)c(Nc3ccc(Br)cc3Cl)c(C(=O)NOCCO)cc21 [AZD6244]; conditions: top dose 4 µM; screen: GDSC drug entry 1498; top dose inferred
Procedure: as §1

PANC-03-27 (pancreas, adherent)
AUC (YM201636): 0.951
IC50 (YM201636): > 5.12 µM
AUC (EX-527): 0.987
IC50 (EX-527): > 20 µM
AUC (AS601245): 0.715
IC50 (AS601245): 1.94 µM
AUC (AZD6244): 0.822
IC50 (AZD6244): 2.14 µM

PANC-04-03 (pancreas, adherent)
AUC (YM201636): 0.963
IC50 (YM201636): > 5.12 µM
AUC (EX-527): 0.974
IC50 (EX-527): > 20 µM
AUC (AS601245): 0.944
IC50 (AS601245): > 8 µM
AUC (AZD6244): 0.675
IC50 (AZD6244): 1.04 µM

PANC-08-13 (pancreas, adherent)
AUC (YM201636): 0.881
IC50 (YM201636): > 5.12 µM
AUC (EX-527): 0.983
IC50 (EX-527): > 20 µM
AUC (AS601245): 0.732
IC50 (AS601245): 2.81 µM
AUC (AZD6244): 0.953
IC50 (AZD6244): > 4 µM

PANC-10-05 (pancreas, adherent)
AUC (YM201636): 0.899
IC50 (YM201636): > 5.12 µM
AUC (EX-527): 0.971
IC50 (EX-527): > 20 µM
AUC (AS601245): 0.773
IC50 (AS601245): 4.02 µM
AUC (AZD6244): 0.77
IC50 (AZD6244): 1.97 µM

PC-3 (prostate, adherent)
AUC (YM201636): 0.878
IC50 (YM201636): > 5.12 µM
AUC (EX-527): 0.97
IC50 (EX-527): > 20 µM
AUC (AS601245): 0.861
IC50 (AS601245): > 8 µM
AUC (AZD6244): 0.963
IC50 (AZD6244): > 4 µM

PC-3 [JPC-3] (lung adenocarcinoma, adherent)
AUC (YM201636): 0.936
IC50 (YM201636): > 5.12 µM
AUC (EX-527): 0.954
IC50 (EX-527): > 20 µM
AUC (AS601245): 0.739
IC50 (AS601245): 3.08 µM
AUC (AZD6244): 0.948
IC50 (AZD6244): > 4 µM

PC-14 (lung adenocarcinoma, adherent)
AUC (YM201636): 0.909
IC50 (YM201636): > 5.12 µM
AUC (EX-527): 0.989
IC50 (EX-527): > 20 µM
AUC (AS601245): 0.768
IC50 (AS601245): 2.69 µM
AUC (AZD6244): 0.972
IC50 (AZD6244): > 4 µM

PCI-4B (head and neck, adherent)
AUC (YM201636): 0.945
IC50 (YM201636): > 5.12 µM
AUC (EX-527): 0.983
IC50 (EX-527): > 20 µM
AUC (AS601245): 0.857
IC50 (AS601245): 5.98 µM
AUC (AZD6244): 0.658
IC50 (AZD6244): 0.671 µM

PCI-6A (head and neck, adherent)
AUC (YM201636): 0.885
IC50 (YM201636): > 5.12 µM
AUC (EX-527): 0.988
IC50 (EX-527): > 20 µM
AUC (AS601245): 0.859
IC50 (AS601245): 6.45 µM
AUC (AZD6244): 0.935
IC50 (AZD6244): > 4 µM

PCI-15A (head and neck, adherent)
AUC (YM201636): 0.981
IC50 (YM201636): > 5.12 µM
AUC (EX-527): 0.983
IC50 (EX-527): > 20 µM
AUC (AS601245): 0.881
IC50 (AS601245): > 8 µM
AUC (AZD6244): 0.885
IC50 (AZD6244): > 4 µM

PCI-30 (head and neck, adherent)
AUC (YM201636): 0.934
IC50 (YM201636): > 5.12 µM
AUC (EX-527): 0.984
IC50 (EX-527): > 20 µM
AUC (AS601245): 0.985
IC50 (AS601245): > 8 µM
AUC (AZD6244): 0.931
IC50 (AZD6244): > 4 µM

PCI-38 (head and neck, adherent)
AUC (YM201636): 0.887
IC50 (YM201636): > 5.12 µM
AUC (EX-527): 0.985
IC50 (EX-527): > 20 µM
AUC (AS601245): 0.918
IC50 (AS601245): > 8 µM
AUC (AZD6244): 0.906
IC50 (AZD6244): > 4 µM

PE/CA-PJ15 (head and neck, adherent)
AUC (YM201636): 0.965
IC50 (YM201636): > 5.12 µM
AUC (EX-527): 0.978
IC50 (EX-527): > 20 µM
AUC (AS601245): 0.986
IC50 (AS601245): > 8 µM
AUC (AZD6244): 0.682
IC50 (AZD6244): 0.844 µM

PL4 (pancreas, adherent)
AUC (YM201636): 0.958
IC50 (YM201636): > 5.12 µM
AUC (EX-527): 0.986
IC50 (EX-527): > 20 µM
AUC (AS601245): 0.902
IC50 (AS601245): > 8 µM
AUC (AZD6244): 0.669
IC50 (AZD6244): 0.75 µM

PL18 (pancreas, adherent)
AUC (YM201636): 0.981
IC50 (YM201636): > 5.12 µM
AUC (EX-527): 0.983
IC50 (EX-527): > 20 µM
AUC (AS601245): 0.969
IC50 (AS601245): > 8 µM
AUC (AZD6244): 0.82
IC50 (AZD6244): 2.28 µM

RCM-1 (large intestine, adherent)
AUC (YM201636): 0.985
IC50 (YM201636): > 5.12 µM
AUC (EX-527): 0.979
IC50 (EX-527): > 20 µM
AUC (AS601245): 0.906
IC50 (AS601245): > 8 µM
AUC (AZD6244): 0.722
IC50 (AZD6244): 1.24 µM

RD (rhabdomyosarcoma, adherent)
AUC (YM201636): 0.872
IC50 (YM201636): > 5.12 µM
AUC (EX-527): 0.984
IC50 (EX-527): > 20 µM
AUC (AS601245): 0.864
IC50 (AS601245): > 8 µM
AUC (AZD6244): 0.605
IC50 (AZD6244): 0.498 µM

RERF-GC-1B (stomach, adherent)
AUC (YM201636): 0.85
IC50 (YM201636): 4.6 µM
AUC (EX-527): 0.96
IC50 (EX-527): > 20 µM
AUC (AS601245): 0.974
IC50 (AS601245): > 8 µM
AUC (AZD6244): 0.869
IC50 (AZD6244): > 4 µM

RERF-LC-KJ (lung adenocarcinoma, adherent)
AUC (YM201636): 0.875
IC50 (YM201636): > 5.12 µM
AUC (EX-527): 0.987
IC50 (EX-527): > 20 µM
AUC (AS601245): 0.773
IC50 (AS601245): 3.2 µM
AUC (AZD6244): 0.945
IC50 (AZD6244): > 4 µM

RERF-LC-MS (lung adenocarcinoma, adherent)
AUC (YM201636): 0.912
IC50 (YM201636): > 5.12 µM
AUC (EX-527): 0.983
IC50 (EX-527): > 20 µM
AUC (AS601245): 0.93
IC50 (AS601245): > 8 µM
AUC (AZD6244): 0.755
IC50 (AZD6244): 1.39 µM

RERF-LC-Sq1 (lung squamous cell carcinoma, adherent)
AUC (YM201636): 0.955
IC50 (YM201636): > 5.12 µM
AUC (EX-527): 0.979
IC50 (EX-527): > 20 µM
AUC (AS601245): 0.787
IC50 (AS601245): 5.4 µM
AUC (AZD6244): 0.83
IC50 (AZD6244): > 4 µM

RH-41 (rhabdomyosarcoma, adherent)
AUC (YM201636): 0.989
IC50 (YM201636): > 5.12 µM
AUC (EX-527): 0.991
IC50 (EX-527): > 20 µM
AUC (AS601245): 0.921
IC50 (AS601245): > 8 µM
AUC (AZD6244): 0.976
IC50 (AZD6244): > 4 µM

RKN (ovary, adherent)
AUC (YM201636): 0.9
IC50 (YM201636): > 5.12 µM
AUC (EX-527): 0.982
IC50 (EX-527): > 20 µM
AUC (AS601245): 0.875
IC50 (AS601245): > 8 µM
AUC (AZD6244): 0.356
IC50 (AZD6244): 0.0976 µM

RMG-I (ovary, adherent)
AUC (YM201636): 0.93
IC50 (YM201636): > 5.12 µM
AUC (EX-527): 0.981
IC50 (EX-527): > 20 µM
AUC (AS601245): 0.885
IC50 (AS601245): > 8 µM
AUC (AZD6244): 0.488
IC50 (AZD6244): 0.23 µM

RO82-W-1 (thyroid, adherent)
AUC (YM201636): 0.982
IC50 (YM201636): > 5.12 µM
AUC (EX-527): 0.982
IC50 (EX-527): > 20 µM
AUC (AS601245): 0.849
IC50 (AS601245): > 8 µM
AUC (AZD6244): 0.88
IC50 (AZD6244): > 4 µM

RPMI-2650 (head and neck, adherent)
AUC (YM201636): 0.814
IC50 (YM201636): 3.08 µM
AUC (EX-527): 0.973
IC50 (EX-527): > 20 µM
AUC (AS601245): 0.739
IC50 (AS601245): 2.57 µM
AUC (AZD6244): 0.978
IC50 (AZD6244): > 4 µM

RT4 (bladder, adherent)
AUC (YM201636): 0.844
IC50 (YM201636): 3.95 µM
AUC (EX-527): 0.987
IC50 (EX-527): > 20 µM
AUC (AS601245): 0.867
IC50 (AS601245): 7.83 µM
AUC (AZD6244): 0.951
IC50 (AZD6244): > 4 µM

RT-112 (bladder, adherent)
AUC (YM201636): 0.913
IC50 (YM201636): > 5.12 µM
AUC (EX-527): 0.982
IC50 (EX-527): > 20 µM
AUC (AS601245): 0.888
IC50 (AS601245): > 8 µM
AUC (AZD6244): 0.857
IC50 (AZD6244): 3.67 µM

RVH-421 (melanoma, adherent)
AUC (YM201636): 0.811
IC50 (YM201636): 4.04 µM
AUC (EX-527): 0.971
IC50 (EX-527): > 20 µM
AUC (AS601245): 0.898
IC50 (AS601245): > 8 µM
AUC (AZD6244): 0.628
IC50 (AZD6244): 0.643 µM

SAS (head and neck, adherent)
AUC (YM201636): 0.95
IC50 (YM201636): > 5.12 µM
AUC (EX-527): 0.98
IC50 (EX-527): > 20 µM
AUC (AS601245): 0.886
IC50 (AS601245): > 8 µM
AUC (AZD6244): 0.771
IC50 (AZD6244): 1.71 µM

SAT (head and neck, adherent)
AUC (YM201636): 0.964
IC50 (YM201636): > 5.12 µM
AUC (EX-527): 0.975
IC50 (EX-527): > 20 µM
AUC (AS601245): 0.761
IC50 (AS601245): 4.45 µM
AUC (AZD6244): 0.659
IC50 (AZD6244): 0.881 µM
